Data on twelve molecules can be found in the supplement of paper PMC4604168 (melanoma cell lines).

The structures appear in SMILES notation. The list shows a part of the results. Many values rest on one well or one pass, so single values are uncertain.
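Note: cells treated in 1,536-well plates, then fixed and DAPI-stained, with nuclei counted from automated high-throughput microscope images.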

This assay deals with WM3526. Briefly: cell count relative to DMSO control; melanoma cells; higher = more viable cells. As to conditions: library dose: standard library concentration; 72 h.
`CCN(CC)CCNC(=O)c1c(C)[nH]c(/C=C2\C(=O)Nc3ccc(F)cc32)c1C` [sunitinib] + CC1(C)NC(=O)N(c2ccc([N+](=O)[O-])c(C(F)(F)F)c2)C1=O [nilutamide] (first compound 2 µM, partner dose 5 µM) returned a cell count of 41.1%.

`Cn1cnc2c(F)c(Nc3ccc(Br)cc3Cl)c(C(=O)NOCCO)cc21` [selumetinib] + CO[C@@H]1[C@H](N(C)C(=O)c2ccccc2)C[C@H]2O[C@]1(C)n1c3ccccc3c3c4c(c5c6ccccc6n2c5c31)C(=O)NC4 [Midostaurin] (first compound 0.075 µM, partner dose 0.4 µM) showed a cell count of 66.5%.

Molecule `COc1cc([C@@H]2c3cc4c(cc3[C@@H](O[C@@H]3O[C@@H]5CO[C@@H](C)O[C@H]5[C@H](O)[C@H]3O)[C@H]3COC(=O)[C@H]23)OCO4)cc(OC)c1O` [etoposide] + Cc1cc(N2CCOCC2)cc2[nH]c(-c3c(NC[C@@H](O)c4cccc(Cl)c4)cc[nH]c3=O)nc12 [BMS536924] (first compound 0.1 µM, partner dose 1 µM) showed a cell count of 83.7%.

Regarding `Cn1cnc2c(F)c(Nc3ccc(Br)cc3Cl)c(C(=O)NOCCO)cc21` [selumetinib] + C=CCn1c(=O)c2cnc(Nc3ccc(N4CCN(C)CC4)cc3)nc2n1-c1cccc(C(C)(C)O)n1 [MK1775] (first compound 0.075 µM, partner dose 0.1 µM), the cell count was 44.6%.

In turn, `COc1cc([C@@H]2c3cc4c(cc3[C@@H](O[C@@H]3O[C@@H]5CO[C@@H](C)O[C@H]5[C@H](O)[C@H]3O)[C@H]3COC(=O)[C@H]23)OCO4)cc(OC)c1O` [etoposide] + CO[C@@H]1[C@H](N(C)C(=O)c2ccccc2)C[C@H]2O[C@]1(C)n1c3ccccc3c3c4c(c5c6ccccc6n2c5c31)C(=O)NC4 [Midostaurin] (first compound 0.1 µM, partner dose 0.4 µM) gave a cell count of 76.2%.

`CCN(CC)CCNC(=O)c1c(C)[nH]c(/C=C2\C(=O)Nc3ccc(F)cc32)c1C` [sunitinib] + C[C@@H]1CCN(C(=O)CC#N)C[C@@H]1N(C)c1ncnc2[nH]ccc12 [CP690550] (first compound 2 µM, partner dose 5 µM) showed a cell count of 62.2%.

As for `COc1cc([C@@H]2c3cc4c(cc3[C@@H](O[C@@H]3O[C@@H]5CO[C@@H](C)O[C@H]5[C@H](O)[C@H]3O)[C@H]3COC(=O)[C@H]23)OCO4)cc(OC)c1O` [etoposide] + Nc1ccn([C@@H]2O[C@H](CO)[C@@H](O)C2(F)F)c(=O)n1 [gemcitabine] (first compound 0.1 µM, partner dose 0.002 µM), the cell count worked out at 77.9%.

In the case of `COc1cc([C@@H]2c3cc4c(cc3[C@@H](O[C@@H]3O[C@@H]5CO[C@@H](C)O[C@H]5[C@H](O)[C@H]3O)[C@H]3COC(=O)[C@H]23)OCO4)cc(OC)c1O` [etoposide] + C=CCn1c(=O)c2cnc(Nc3ccc(N4CCN(C)CC4)cc3)nc2n1-c1cccc(C(C)(C)O)n1 [MK1775] (first compound 0.1 µM, partner dose 0.1 µM), the cell count is 74.4%.

Turning to `C[C@]1(O)C[C@@H](c2nc(-c3ccc4ccc(-c5ccccc5)nc4c3)c3c(N)nccn32)C1` + Cc1cc(N2CCOCC2)cc2[nH]c(-c3c(NC[C@@H](O)c4cccc(Cl)c4)cc[nH]c3=O)nc12 [BMS536924] (first compound 2 µM, partner dose 1 µM), the cell count stood at 73.8%.

In the case of `Cn1cnc2c(F)c(Nc3ccc(Br)cc3Cl)c(C(=O)NOCCO)cc21` [selumetinib] + O=C(CCCCCCC(=O)Nc1ccccc1)NO [vorinostat] (first compound 0.075 µM, partner dose 0.4 µM), the cell count was 50%.

On to `Cn1cnc2c(F)c(Nc3ccc(Br)cc3Cl)c(C(=O)NOCCO)cc21` [selumetinib] + CC(C)(C)c1cnc(CSc2cnc(NC(=O)C3CCNCC3)s2)o1 [SNS-032] (first compound 0.075 µM, partner dose 0.05 µM), for which the cell count was determined as 49.2%.

`COc1cc([C@@H]2c3cc4c(cc3[C@@H](O[C@@H]3O[C@@H]5CO[C@@H](C)O[C@H]5[C@H](O)[C@H]3O)[C@H]3COC(=O)[C@H]23)OCO4)cc(OC)c1O` [etoposide] + Cc1ccc(NC(=O)c2cccc(N(C)C)c2)cc1NC(=O)c1ccc(O)cc1 [ZM336372] (first compound 0.1 µM, partner dose 10 µM) gave a cell count of 94.3%.
